From the supplement of paper PMC8728848
Some of the results follow.

Assays:
Test in all cases: glycan array binding signal (z-score within array); higher = stronger binding
Conditions in all cases: glycan notation: IUPAC condensed, linker removed
Man(a1-2)Man(a1-3)Man = target: Man(a1-2)Man(a1-3)Man
Outline: (§1)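 Glycan array data were curated from 3228 arrays in the Consortium for Functional Glycomics database and kept only where the protein sequence was available. Glycan names were converted to IUPAC-condensed notation, and columns mapping to the same glycan were averaged. The binding signal is a within-array Z-score, averaged across arrays of the same protein sequence at different concentrations or buffers and across linkers. Negative Z-scores can be read as non-binding.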

[1] = target: Man(a1-2)Man(a1-3)[Man(a1-2)Man(a1-6)]Man
Outline: as §1

[2] = target: Man(a1-2)Man(a1-3)[Man(a1-2)Man(a1-6)]Man(a1-6)[Man(a1-2)Man(a1-2)Man(a1-3)]Man
Outline: as §1

[3] = target: Man(a1-2)Man(a1-3)[Man(a1-2)Man(a1-6)]Man(a1-6)[Man(a1-2)Man(a1-2)Man(a1-3)]Man(b1-4)GlcNAc(b1-4)GlcNAc
Outline: as §1

[4] = target: Man(a1-2)Man(a1-3)[Man(a1-6)]Man(a1-6)[Man(a1-2)Man(a1-3)]Man(b1-4)GlcNAc(b1-4)GlcNAc
Outline: as §1

[5] = target: Man(a1-2)Man(a1-6)[Man(a1-3)]Man(a1-6)[Man(a1-2)Man(a1-2)Man(a1-3)]Man
Outline: as §1

[6] = target: Man(a1-2)Man(a1-6)[Man(a1-3)]Man(a1-6)[Man(a1-2)Man(a1-2)Man(a1-3)]Man(b1-4)GlcNAc(b1-4)GlcNAc
Outline: as §1

Man(a1-3)[Man(a1-6)]Man = target: Man(a1-3)[Man(a1-6)]Man
Outline: as §1

[7] = target: Man(a1-3)[Man(a1-6)]Man(a1-6)[Man(a1-2)Man(a1-3)]Man(b1-4)GlcNAc(b1-4)GlcNAc
Outline: as §1

[8] = target: Man(a1-3)[Man(a1-6)]Man(a1-6)[Man(a1-3)]Man
Outline: as §1

[9] = target: Man(a1-3)[Man(a1-6)]Man(a1-6)[Man(a1-3)]Man(b1-4)GlcNAc(b1-4)GlcNAc
Outline: as §1

[10] = target: Man(a1-3)[Man(a1-6)]Man(b1-4)GlcNAc(b1-4)GlcNAc
Outline: as §1

[11] = target: Man(a1-3)[Man(a1-6)]Man(b1-4)GlcNAc(b1-4)[Fuc(a1-6)]GlcNAc
Outline: as §1

Man(a1-6)Man = target: Man(a1-6)Man
Outline: as §1

Man(b1-4)GlcNAc = target: Man(b1-4)GlcNAc
Outline: as §1

Neu5Ac(a2-3)Gal = target: Neu5Ac(a2-3)Gal
Outline: as §1

[12] = target: Neu5Ac(a2-3)Gal(b1-3)GalNAc
Outline: as §1

[13] = target: Neu5Ac(a2-3)Gal(b1-3)GalNAc(b1-3)Gal(a1-4)Gal(b1-4)Glc
Outline: as §1

[14] = target: Neu5Ac(a2-3)Gal(b1-3)GalNAc(b1-3)Gal(b1-4)GlcNAc
Outline: as §1

[15] = target: Neu5Ac(a2-3)Gal(b1-3)GalNAc(b1-4)[Neu5Ac(a2-3)]Gal(b1-4)Glc
Outline: as §1

[16] = target: Neu5Ac(a2-3)Gal(b1-3)GalNAc(b1-4)[Neu5Ac(a2-8)Neu5Ac(a2-3)]Gal(b1-4)Glc
Outline: as §1

[17] = target: Neu5Ac(a2-3)Gal(b1-3)GalNAc6S
Outline: as §1

[18] = target: Neu5Ac(a2-3)Gal(b1-3)GlcNAc
Outline: as §1

[19] = target: Neu5Ac(a2-3)Gal(b1-3)GlcNAc(b1-2)Man(a1-3)[GlcNAc(b1-4)][Neu5Ac(a2-3)Gal(b1-3)GlcNAc(b1-2)Man(a1-6)]Man(b1-4)GlcNAc(b1-4)GlcNAc
Outline: as §1

[20] = target: Neu5Ac(a2-3)Gal(b1-3)GlcNAc(b1-3)Gal(b1-3)GlcNAc
Outline: as §1

[21] = target: Neu5Ac(a2-3)Gal(b1-3)GlcNAc(b1-3)Gal(b1-4)GlcNAc
Outline: as §1

[22] = target: Neu5Ac(a2-3)Gal(b1-3)GlcNAc(b1-3)GalNAc
Outline: as §1

[23] = target: Neu5Ac(a2-3)Gal(b1-3)GlcNAc(b1-6)GalNAc
Outline: as §1

[24] = target: Neu5Ac(a2-3)Gal(b1-3)GlcNAc6S
Outline: as §1

[25] = target: Neu5Ac(a2-3)Gal(b1-3)[Fuc(a1-4)]GlcNAc
Outline: as §1

[26] = target: Neu5Ac(a2-3)Gal(b1-3)[Fuc(a1-4)]GlcNAc(b1-3)Gal(b1-3)[Fuc(a1-4)]GlcNAc
Outline: as §1

[27] = target: Neu5Ac(a2-3)Gal(b1-3)[Fuc(a1-4)]GlcNAc(b1-3)Gal(b1-4)[Fuc(a1-3)]GlcNAc
Outline: as §1

[28] = target: Neu5Ac(a2-3)Gal(b1-3)[Neu5Ac(a2-3)Gal(b1-4)]GlcNAc
Outline: as §1

[29] = target: Neu5Ac(a2-3)Gal(b1-3)[Neu5Ac(a2-6)]GalNAc
Outline: as §1

[30] = target: Neu5Ac(a2-3)Gal(b1-3)[Neu5Ac(a2-6)]GlcNAc(b1-3)[Fuc(a1-3)[Gal(b1-4)]GlcNAc(b1-6)]Gal(b1-4)Glc
Outline: as §1

Neu5Ac(a2-3)Gal(b1-4)Glc = target: Neu5Ac(a2-3)Gal(b1-4)Glc
Outline: as §1

[31] = target: Neu5Ac(a2-3)Gal(b1-4)GlcNAc
Outline: as §1

[32] = target: Neu5Ac(a2-3)Gal(b1-4)GlcNAc(b1-2)Man
Outline: as §1

[33] = target: Neu5Ac(a2-3)Gal(b1-4)GlcNAc(b1-2)Man(a1-3)[GlcNAc(b1-2)Man(b1-4)GlcNAc(b1-2)Man(a1-6)]Man(b1-4)GlcNAc(b1-4)GlcNAc
Outline: as §1

[34] = target: Neu5Ac(a2-3)Gal(b1-4)GlcNAc(b1-2)Man(a1-3)[Neu5Ac(a2-3)Gal(b1-4)GlcNAc(b1-2)Man(a1-6)]Man(b1-4)GlcNAc(b1-4)[Fuc(a1-6)]GlcNAc
Outline: as §1

[35] = target: Neu5Ac(a2-3)Gal(b1-4)GlcNAc(b1-2)Man(a1-3)[Neu5Ac(a2-6)Gal(b1-4)GlcNAc(b1-2)Man(a1-6)]Man(b1-4)GlcNAc(b1-4)GlcNAc
Outline: as §1

[36] = target: Neu5Ac(a2-3)Gal(b1-4)GlcNAc(b1-2)[Neu5Ac(a2-3)Gal(b1-4)GlcNAc(b1-6)]Man(a1-6)[Neu5Ac(a2-3)Gal(b1-4)GlcNAc(b1-2)Man(a1-3)]Man(b1-4)GlcNAc(b1-4)GlcNAc
Outline: as §1

[37] = target: Neu5Ac(a2-3)Gal(b1-4)GlcNAc(b1-3)Gal
Outline: as §1

[38] = target: Neu5Ac(a2-3)Gal(b1-4)GlcNAc(b1-3)Gal(b1-3)GlcNAc
Outline: as §1

[39] = target: Neu5Ac(a2-3)Gal(b1-4)GlcNAc(b1-3)Gal(b1-4)GlcNAc
Outline: as §1

[40] = target: Neu5Ac(a2-3)Gal(b1-4)GlcNAc(b1-3)Gal(b1-4)GlcNAc(b1-3)Gal(b1-4)GlcNAc
Outline: as §1

[41] = target: Neu5Ac(a2-3)Gal(b1-4)GlcNAc(b1-3)Gal(b1-4)[Fuc(a1-3)]GlcNAc
Outline: as §1

[42] = target: Neu5Ac(a2-3)Gal(b1-4)GlcNAc(b1-3)GalNAc
Outline: as §1

[43] = target: Neu5Ac(a2-3)Gal(b1-4)GlcNAc(b1-3)[Neu5Ac(a2-3)Gal(b1-4)GlcNAc(b1-6)]GalNAc
Outline: as §1

[44] = target: Neu5Ac(a2-3)Gal(b1-4)GlcNAc(b1-6)GalNAc
Outline: as §1

[45] = target: Neu5Ac(a2-3)Gal(b1-4)GlcNAc(b1-6)[Gal(b1-3)]GalNAc
Outline: as §1

[46] = target: Neu5Ac(a2-3)Gal(b1-4)GlcNAc(b1-6)[Neu5Ac(a2-3)Gal(b1-3)]GalNAc
Outline: as §1

[47] = target: Neu5Ac(a2-3)Gal(b1-4)GlcNAc6S
Outline: as §1

[48] = target: Neu5Ac(a2-3)Gal(b1-4)[Fuc(a1-3)]GlcNAc
Outline: as §1

[49] = target: Neu5Ac(a2-3)Gal(b1-4)[Fuc(a1-3)]GlcNAc(b1-3)Gal
Outline: as §1

[50] = target: Neu5Ac(a2-3)Gal(b1-4)[Fuc(a1-3)]GlcNAc(b1-3)Gal(b1-4)GlcNAc
Outline: as §1

[51] = target: Neu5Ac(a2-3)Gal(b1-4)[Fuc(a1-3)]GlcNAc(b1-3)Gal(b1-4)[Fuc(a1-3)]GlcNAc(b1-3)Gal(b1-4)[Fuc(a1-3)]GlcNAc
Outline: as §1

[52] = target: Neu5Ac(a2-3)Gal(b1-4)[Fuc(a1-3)]GlcNAc(b1-3)GalNAc
Outline: as §1

[53] = target: Neu5Ac(a2-3)Gal(b1-4)[Fuc(a1-3)]GlcNAc(b1-6)[Gal(b1-3)]GalNAc
Outline: as §1

B1: Gal 8 (Homo sapiens), O00214_1 (protein)
chain: MMLSLNNLQNIIYNPVIPFVGTIPDQLDPGTLIVIRGHVPSDADRFQVDLQNGSSMKPRADVAFHFNPRFKRAGCIVCNTLINEKWGREEITYDTPFKREKSFEIVIMVLKDKFQVAVNGKHTLLYGHRIGPEKIDTLGIYGKVNIHSIGFSFSSDLQSTQASSLELTEISRENVPKSGTPQLRLPFAARLNTPMGPGRTVVVKGEVNANAKSFNVDLLAGKSKDIALHLNPRLNIKAFVRNSFLQESWGEEERNITSFPFSPGMYFEMIIYCDVREFKVAVNGVHSLEYKHRFKELSSIDTLEINGDIHLLEVRSW
glycan array binding signal (z-score) (Man(a1-2)Man(a1-3)Man): -0.215
glycan array binding signal (z-score) [1]: -0.223
glycan array binding signal (z-score) [2]: -0.231
glycan array binding signal (z-score) [3]: 0.589
glycan array binding signal (z-score) [4]: -0.196
glycan array binding signal (z-score) [5]: -0.193
glycan array binding signal (z-score) [6]: -0.252
glycan array binding signal (z-score) (Man(a1-3)[Man(a1-6)]Man): -0.239
glycan array binding signal (z-score) [7]: 2.31
glycan array binding signal (z-score) [8]: -0.195
glycan array binding signal (z-score) [9]: -0.16
glycan array binding signal (z-score) [10]: -0.177
glycan array binding signal (z-score) [11]: -0.229
glycan array binding signal (z-score) (Man(a1-6)Man): -0.233
glycan array binding signal (z-score) (Man(b1-4)GlcNAc): -0.256
glycan array binding signal (z-score) (Neu5Ac(a2-3)Gal): -0.18
glycan array binding signal (z-score) [12]: -0.08
glycan array binding signal (z-score) [13]: -0.078
glycan array binding signal (z-score) [14]: 0.203
glycan array binding signal (z-score) [15]: 0.064
glycan array binding signal (z-score) [16]: -0.212
glycan array binding signal (z-score) [17]: 0.137
glycan array binding signal (z-score) [18]: 0.105
glycan array binding signal (z-score) [19]: -2.19
glycan array binding signal (z-score) [20]: 1.18
glycan array binding signal (z-score) [21]: 0.746
glycan array binding signal (z-score) [22]: 0.065
glycan array binding signal (z-score) [23]: -0.002
glycan array binding signal (z-score) [24]: 2.19
glycan array binding signal (z-score) [25]: -0.211
glycan array binding signal (z-score) [26]: -0.255
glycan array binding signal (z-score) [27]: -0.246
glycan array binding signal (z-score) [28]: -0.192
glycan array binding signal (z-score) [29]: -0.163
glycan array binding signal (z-score) [30]: -0.082
glycan array binding signal (z-score) (Neu5Ac(a2-3)Gal(b1-4)Glc): 0.487
glycan array binding signal (z-score) [31]: -0.207
glycan array binding signal (z-score) [32]: -0.088
glycan array binding signal (z-score) [33]: -0.189
glycan array binding signal (z-score) [34]: -1.19
glycan array binding signal (z-score) [35]: -0.225
glycan array binding signal (z-score) [36]: -9.02
glycan array binding signal (z-score) [37]: -0.242
glycan array binding signal (z-score) [38]: -0.205
glycan array binding signal (z-score) [39]: -0.244
glycan array binding signal (z-score) [40]: 0.313
glycan array binding signal (z-score) [41]: -0.186
glycan array binding signal (z-score) [42]: -0.227
glycan array binding signal (z-score) [43]: -0.265
glycan array binding signal (z-score) [44]: -0.203
glycan array binding signal (z-score) [45]: -0.174
glycan array binding signal (z-score) [46]: -0.13
glycan array binding signal (z-score) [47]: -0.048
glycan array binding signal (z-score) [48]: -0.24
glycan array binding signal (z-score) [49]: -0.243
glycan array binding signal (z-score) [50]: -0.166
glycan array binding signal (z-score) [51]: 0.337
glycan array binding signal (z-score) [52]: -0.863
glycan array binding signal (z-score) [53]: -0.123
